Article PMC3610741
No constants are given. Whether binding was seen depends on the method and setting. In cells and extracts the contact can be indirect. Some results given as binding are weak or reduced against the parent protein; the word gives no strength.

By UniProt entry, the sequences of proteins in these tests, tags left out. Where a name states a change or a piece, a line headed by the entry shows the natural chain unless it says otherwise. Chains listed by the source or under a name are the forms on record and can include a tag or linker. Residues count along the entry.
UniProt Q93009: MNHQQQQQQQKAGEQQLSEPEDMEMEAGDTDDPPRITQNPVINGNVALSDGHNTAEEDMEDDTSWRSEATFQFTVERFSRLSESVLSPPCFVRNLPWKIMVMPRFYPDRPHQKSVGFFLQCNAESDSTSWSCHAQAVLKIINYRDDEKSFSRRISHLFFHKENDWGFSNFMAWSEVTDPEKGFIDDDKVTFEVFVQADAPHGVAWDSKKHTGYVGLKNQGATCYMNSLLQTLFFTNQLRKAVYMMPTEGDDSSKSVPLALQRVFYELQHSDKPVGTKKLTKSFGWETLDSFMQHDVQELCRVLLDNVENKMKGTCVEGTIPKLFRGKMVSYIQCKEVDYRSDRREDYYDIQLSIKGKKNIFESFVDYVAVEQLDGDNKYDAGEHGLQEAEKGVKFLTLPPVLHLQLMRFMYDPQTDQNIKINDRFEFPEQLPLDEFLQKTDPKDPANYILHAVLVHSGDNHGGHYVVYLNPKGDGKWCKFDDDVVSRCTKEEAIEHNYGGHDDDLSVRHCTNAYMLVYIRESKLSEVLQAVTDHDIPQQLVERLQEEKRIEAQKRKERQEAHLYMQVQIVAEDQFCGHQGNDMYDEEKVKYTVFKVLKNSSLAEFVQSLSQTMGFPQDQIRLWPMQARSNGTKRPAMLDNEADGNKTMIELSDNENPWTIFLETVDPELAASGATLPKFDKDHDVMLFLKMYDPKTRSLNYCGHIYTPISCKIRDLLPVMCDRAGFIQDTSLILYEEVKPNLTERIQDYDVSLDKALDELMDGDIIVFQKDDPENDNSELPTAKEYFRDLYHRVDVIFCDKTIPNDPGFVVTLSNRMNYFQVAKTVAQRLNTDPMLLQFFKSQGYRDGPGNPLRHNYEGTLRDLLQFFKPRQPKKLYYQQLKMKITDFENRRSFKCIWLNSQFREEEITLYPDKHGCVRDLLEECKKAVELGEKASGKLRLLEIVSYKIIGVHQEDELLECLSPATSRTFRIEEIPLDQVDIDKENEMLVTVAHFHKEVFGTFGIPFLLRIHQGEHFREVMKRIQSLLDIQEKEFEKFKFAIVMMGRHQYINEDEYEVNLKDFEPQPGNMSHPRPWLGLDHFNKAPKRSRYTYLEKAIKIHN
GST fused USP7 N-terminal segment (TD, residues 1–215): residues 1-215 of Q93009
GST fused USP7 central catalytic domain (CD): residues 208-560 of Q93009
GST fused USP7 C-terminal structural domain C1: residues 600-870 of Q93009
GST fused USP7 C-terminal structural domain C2: residues 885-1061 of Q93009
UniProt Q4VSI4: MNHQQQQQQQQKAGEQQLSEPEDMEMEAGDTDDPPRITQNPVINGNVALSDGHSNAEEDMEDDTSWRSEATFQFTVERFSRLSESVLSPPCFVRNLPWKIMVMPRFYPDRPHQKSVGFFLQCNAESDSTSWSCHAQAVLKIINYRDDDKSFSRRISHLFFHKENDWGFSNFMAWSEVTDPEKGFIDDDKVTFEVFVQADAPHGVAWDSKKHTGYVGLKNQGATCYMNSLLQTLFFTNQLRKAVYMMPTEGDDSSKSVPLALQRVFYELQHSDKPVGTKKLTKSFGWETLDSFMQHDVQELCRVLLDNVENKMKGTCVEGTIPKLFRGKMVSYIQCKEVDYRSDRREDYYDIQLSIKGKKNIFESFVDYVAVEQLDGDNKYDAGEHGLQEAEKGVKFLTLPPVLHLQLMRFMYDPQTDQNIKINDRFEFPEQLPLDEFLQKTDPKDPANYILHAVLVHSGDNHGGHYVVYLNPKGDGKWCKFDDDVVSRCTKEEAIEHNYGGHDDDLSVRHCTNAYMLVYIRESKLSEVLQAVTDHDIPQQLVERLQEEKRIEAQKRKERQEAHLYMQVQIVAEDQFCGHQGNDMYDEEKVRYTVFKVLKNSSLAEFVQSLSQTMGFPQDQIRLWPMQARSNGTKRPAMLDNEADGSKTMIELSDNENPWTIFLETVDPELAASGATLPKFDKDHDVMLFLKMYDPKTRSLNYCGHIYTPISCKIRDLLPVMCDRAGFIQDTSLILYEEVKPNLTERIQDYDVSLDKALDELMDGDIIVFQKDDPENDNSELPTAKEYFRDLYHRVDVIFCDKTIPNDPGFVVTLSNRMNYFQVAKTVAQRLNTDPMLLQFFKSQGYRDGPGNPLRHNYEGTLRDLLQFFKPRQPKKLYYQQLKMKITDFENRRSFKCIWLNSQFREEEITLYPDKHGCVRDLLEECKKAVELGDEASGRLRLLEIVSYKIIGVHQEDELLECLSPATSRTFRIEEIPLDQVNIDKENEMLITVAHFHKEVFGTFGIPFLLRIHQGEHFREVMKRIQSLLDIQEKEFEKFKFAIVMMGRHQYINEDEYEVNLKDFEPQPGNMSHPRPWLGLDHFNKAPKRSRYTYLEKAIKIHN

Tests used:
[1] = molecular target: GST fused full-length HAdV5 E1B-55K (human adenovirus type 5 (HAdV5)) (UniProt P03243); experiment: pull-down; GST fusions of E1B-55K and its variants immobilized to Glutathione-sepharose beads, incubated with extracts of H1299 cells for 2 h at 4°C, washed six times; USP7 detected by immunoblot; only the target purified
[2] = molecular target: GST fusion protein E1B 1–162 (human adenovirus type 5 (HAdV5)) (UniProt P03243); experiment: as above
[3] = molecular target: Ubiquitin-specific protease 7 (USP7), cellular, endogenous in human cells (human (endogenous in H1299 and A549)) (UniProt Q93009); experiment: co-IP; USP7 precipitated with the USP7 antibody 6E6 or 3D8 (control IgG2a) from lysates of transfected H1299, infected A549 and H1299 (MOI 20, 24 h p.i.) or transfected Brk1 cells; E1B-55K detected by immunoblot; in one panel H1299 cells untreated or treated with DMSO or HBX (3 µM), co-precipitate reduced after HBX
[4] = molecular target: GST fused USP7 central catalytic domain (CD) (human) (UniProt Q93009); experiment: pull-down; GST fused USP7 segments on Glutathione Sepharose incubated with HAdV5 wt (H5pg4100)-infected H1299 cell extracts prepared at 48 h p.i., 2 h at 4°C; E1B-55K detected by immunoblot; only the target purified
[5] = molecular target: GST fused USP7 N-terminal segment (TD, residues 1–215) (human) (UniProt Q93009); experiment: as above
[6] = molecular target: GST fused USP7 C-terminal structural domain C2 (human) (UniProt Q93009); experiment: as above
[7] = molecular target: GST fused USP7 C-terminal structural domain C1 (human) (UniProt Q93009); experiment: as above
[8] = molecular target: USP7 endogenous in Brk1 rat cells (rat (endogenous in Brk1)) (UniProt Q4VSI4); experiment: co-IP; USP7 precipitated with the USP7 antibody 6E6 or 3D8 (control IgG2a) from lysates of transfected H1299, infected A549 and H1299 (MOI 20, 24 h p.i.) or transfected Brk1 cells; E1B-55K detected by immunoblot; in one panel H1299 cells untreated or treated with DMSO or HBX (3 µM), co-precipitate reduced after HBX

Substance: Ubiquitin-specific protease 7 (USP7), cellular, endogenous in human cells (from UniProt Q93009-1 1-1102) (enzyme)
- binding [1]: binds
- binding [2]: binds

Substance: HAdV5 E1B-55K protein from wt virus (H5pg4100) infected cells (from UniProt P03243 1-496)
- binding [3]: binds
- binding [4]: no binding
- binding [5]: binds
- binding [6]: no binding
- binding [7]: no binding

Substance: wt E1B-55K expressed from plasmid pE1B-55K in H1299 cells (from UniProt P03243 1-496)
- binding [3]: binds

Substance: E1B-55K expressed in E1B-plasmid transfected Brk1 rat cells (from UniProt P03243 1-496)
- binding [8]: binds
